Measurements: PubChem BioAssay AID1508623 (National Center for Advancing Translational Sciences (NCATS), 2021)
Out of some 48,000 compounds screened, about 450 (0.94%) were called active. This list was built around the results that the source calls inconclusive (neither active nor inactive); the mix of calls is not that of the screen. The call rests on the fitted dose curve; in most records, active means well fitted inhibition curve with a large enough effect; inconclusive means small, poorly fitted or top-dose-only effect; inactive means no such curve, though single readings can be large or run the other way. Where the call is inconclusive, the potency comes from a doubtful curve fit.

Assay: Primary qHTS for Identification of Small Molecule Inhibitors of Huntingtin Promoter Activity; further: nearly all actives have a fitted effect of over 50% in size
Settings: HEK293 HTT promoter firefly luciferase reporter (activity 0% = vehicle and -100% = no light), 24 h; series mostly up to 57.5 µM
Summary of the method: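 Quantitative HTS used concentration series of up to 57.5 uM final on HEK293 luciferase reporter cells, 24 h at 37 degrees C. Readout was Dual-Glo firefly luminescence.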
Potency means the concentration at half of the fitted maximal effect; tags describe the fitted curve by direction and shape.

Q: With `O=C(Nc1cc(-c2ccccc2F)nn1-c1ccccc1)c1ccccc1Br` as the molecule, how does the Potency read?
A: Its Potency is inconclusive: 8.91 µM [inhibitor, partial curve, poor fit].

Q: For `CCCSC1=NC2(CCN(C(=O)NC3CCCCC3)CC2)N=C1c1ccc(Cl)cc1`, which Potency is on record?
A: Its Potency is inconclusive: 3.55 µM [inhibitor, partial curve, poor fit].

Q: For `CCc1ccc(NC(=O)C2CCCN(S(=O)(=O)c3ccc(F)cc3)C2)cc1` (stereo not given), which Potency is on record?
A: Its Potency is inconclusive: 28.2 µM [inhibitor, partial curve, poor fit].

Q: Which Potency does the source give for `Cc1ccc(Cc2cn3cc(-c4ccccc4)nc3s2)cc1` here?
A: The Potency was inconclusive: 28.2 µM [inhibitor, single point].

Q: With `COc1ccc(C2=NS(=O)(=O)N(C)C(C(=O)N(C)Cc3ccccc3)=C2)cc1OC` as the molecule, how does the Potency read?
A: The Potency was inconclusive: 25.1 µM [inhibitor, partial curve].

Q: For `CCS(=O)(=O)N1CCc2cc(C(=O)Nc3cccc(C(C)=O)c3)ccc21`, which Potency is on record?
A: Its Potency is “inactive”.

Q: Which Potency does the source give for `CC(C)CCn1c(Oc2ccccc2F)nc2c1c(=O)n(C)c(=O)n2C` here?
A: Its Potency is inconclusive: 17.8 µM [inhibitor, single point].

Q: Which Potency does the source give for `CCCOc1cccc(C2c3c(-c4ccccc4O)n[nH]c3C(=O)N2Cc2ccco2)c1` (stereo not given) here?
A: The Potency was inconclusive: 20 µM [inhibitor, partial curve, poor fit].

Q: For `CCCNC(=O)Cn1c(=O)c2cccn2c2cccnc21`, which Potency is on record?
A: The Potency was inconclusive: 15.8 µM [inhibitor, partial curve, poor fit].

Q: For `CCn1c(C(=O)NCc2ccccc2Br)cc2oc3ccccc3c21`, which Potency is on record?
A: The Potency was inconclusive: 12.6 µM [inhibitor, partial curve].

Q: With `COc1ccc(NS(=O)(=O)c2ccc(-c3cnc(C4CC4)o3)cc2)cc1Cl` as the molecule, how does the Potency read?
A: Its Potency is inconclusive: 28.2 µM [inhibitor, partial curve, poor fit].

Q: Which Potency does the source give for `O=C(CCSCc1cnn(-c2ccccc2)c1-n1cccc1)NCc1ccccc1Cl` here?
A: Its Potency is inconclusive: 15.8 µM [inhibitor, single point].

Q: For `CC(=O)N[C@H]1[C@@H]([C@H](O)[C@H](O)CO)OC(C(=O)O)=C[C@@H]1N=C(N)N`, which Potency is on record?
A: Its Potency is “inactive”.

Q: For `Cc1cc(C)cc(Nc2cc(C(=O)NCCCN(C)C3CCCCC3)c3ccccc3n2)c1`, which Potency is on record?
A: The Potency was inconclusive: 22.4 µM [inhibitor, single point].

Q: With `Cc1ccc(Cl)cc1N1CCN(C(=O)c2ccc(CS(=O)c3ccccc3)o2)CC1` (stereo not given) as the molecule, how does the Potency read?
A: The Potency was inconclusive: 15.8 µM [inhibitor, partial curve, poor fit].

Q: For `O=C(Cn1nc(-c2ccc(Cl)cc2)c2ccccc2c1=O)Nc1cccc(C(F)(F)F)c1`, which Potency is on record?
A: Its Potency is inconclusive: 35.5 µM [inhibitor, partial curve, poor fit].

Q: Which Potency does the source give for `COC(=O)c1scc(-c2ccc(C)cc2)c1S(=O)(=O)N1CCN(c2ccc(C)cc2C)CC1` here?
A: The Potency was inconclusive: 39.8 µM [inhibitor, single point].

Q: With `Cc1cccc(CCn2c(=O)c3ccccc3n(CC(=O)Nc3ccccc3F)c2=O)c1` as the molecule, how does the Potency read?
A: Its Potency is “inactive”.

Q: Which Potency does the source give for `Cc1ccc(C)c(N2CCN(CCCNC(=O)c3cnn(-c4ccccc4)c3C3CCN(C(=O)OC(C)(C)C)CC3)CC2)c1` here?
A: Its Potency is inconclusive: 35.5 µM [inhibitor, single point].

Q: Which Potency does the source give for `COc1ccccc1Nc1c2c(nc3ccc(NC(=O)c4ccccc4F)cc13)CCCC2` here?
A: The Potency was inconclusive: 31.6 µM [inhibitor, single point].

Q: Which Potency does the source give for `CCn1c2c(c(=O)n3ncc(C(=O)N4CCN(c5ccc(C(C)=O)cc5)CC4)c13)CN(Cc1ccc(OC)cc1)CC2` here?
A: Its Potency is inconclusive: 3.16 µM [inhibitor, full curve].

Q: With `Cc1cc(NC(=O)c2cc(Cl)ccc2Cl)ccc1-c1cc2ccccc2oc1=O` as the molecule, how does the Potency read?
A: Its Potency is active: 10 µM.

Q: With `O=C1CS(=O)(=O)C2(C(=O)N(Cc3ccccc3)c3ccccc32)N1c1ccc(F)c(Cl)c1` (stereo not given) as the molecule, how does the Potency read?
A: The Potency was inconclusive: 25.1 µM [inhibitor, single point].

Q: Which Potency does the source give for `CN1C(=O)c2ccccc2Sc2ccc(NC(=O)NCc3ccc(Cl)cc3)cc21` here?
A: Its Potency is inconclusive: 8.91 µM [inhibitor, full curve, poor fit].

Q: Which Potency does the source give for `O=C(c1ccc(F)cc1)N1CCC[C@H](c2nc(-c3ccc(F)cc3)no2)C1` here?
A: The Potency was “inactive”.

Q: With `COc1ccccc1C(=O)Oc1c(Sc2ccccc2)c(C)nn1-c1ccccc1` as the molecule, how does the Potency read?
A: The Potency was inconclusive: 25.1 µM [inhibitor, single point].

Q: Which Potency does the source give for `COc1ccc(C(=O)Nc2nc3ccccc3n2CCOc2ccc(Cl)cc2)cc1` here?
A: The Potency was “inactive”.

Q: For `CCN(C(=O)CSc1nc2ccccc2nc1Cc1ccc(F)cc1)c1cccc(C)c1`, which Potency is on record?
A: Its Potency is “inactive”.

Q: Which Potency does the source give for `NC(=O)c1cc[n+](CC2=C(C(=O)[O-])N3C(=O)[C@@H](NC(=O)Cc4cccs4)[C@H]3SC2)cc1` here?
A: Its Potency is “inactive”.

Q: With `CCc1ccc(NC(=O)Cn2cc(S(=O)(=O)c3ccc(F)cc3)c(=O)c3cc(OC)ccc32)cc1` as the molecule, how does the Potency read?
A: Its Potency is inconclusive: 39.8 µM [inhibitor, single point].

Q: For `CCc1nc(-c2ccc(C)c(S(=O)(=O)N3CCN(c4ccc(C(C)=O)cc4)CC3)c2)no1`, which Potency is on record?
A: The Potency was inconclusive: 22.4 µM [inhibitor, single point].

Q: For `CCOc1ccc(C(=O)Nc2ccc(-n3nncc3-c3ccc(OC)cc3)cc2)cc1`, which Potency is on record?
A: The Potency was inconclusive: 39.8 µM [inhibitor, single point].

Q: Which Potency does the source give for `CCCc1cc(=O)[nH]c(Nc2ccc(OCC)cc2)n1` here?
A: Its Potency is inconclusive: 25.1 µM [inhibitor, single point].

Q: With `CCOC(=O)c1cccc(NC(=O)NC(C)c2c(-n3cccc3)sc3c2CCN(C)C3)c1` (stereo not given) as the molecule, how does the Potency read?
A: The Potency was “inactive”.

Q: Which Potency does the source give for `COCCc1ccc(OCC2CO2)cc1` (stereo not given) here?
A: Its Potency is “inactive”.

Q: With `CCc1ccc(OCC(=O)Nc2ncn[nH]2)c(Br)c1` as the molecule, how does the Potency read?
A: Its Potency is “inactive”.

Q: With `COc1cccc(Cn2c(-c3nonc3NC(C)=O)nc3ccccc32)c1` as the molecule, how does the Potency read?
A: Its Potency is inconclusive: 31.6 µM [inhibitor, single point].

Q: Which Potency does the source give for `Cc1ccc2c(c1)c1c3n2CCN(C(=O)c2cccc(C(F)(F)F)c2)C3CCC1` (stereo not given) here?
A: The Potency was inconclusive: 31.6 µM [inhibitor, single point].

Q: Which Potency does the source give for `Cc1ccc(C)c(Cn2c3ccccc3c3cnn(CC(=O)NCCc4ccccc4)c(=O)c32)c1` here?
A: Its Potency is “inactive”.

Q: For `CCC1CN(C(=O)N2CCC(C(=O)N3CCN(c4ccccc4F)CC3)CC2)c2ccccc2O1` (stereo not given), which Potency is on record?
A: Its Potency is inconclusive: 31.6 µM [inhibitor, single point].
